The source of these data is a collection of fitness landscapes (doi:10.1126/science.1257360).

The list shows a part of the results.

B1: PhoQ; a variant is named by its letters at X, in order, P23837 (parent)
chain: MKKLLRLFFPLSLRVRFLLATAAVVLVLSLAYGMVALIGYSVSFDKTTFRLLRGESNLFYTLAKWENNKLHVELPENIDKQSPTMTLIYDENGQLLWAQRDVPWLMKMIQPDWLKSNGFHEIEADVNDTSLLLSGDHSIQQQLQEVREDDDDAEMTHSVAVNVYPATSRMPKLTIVVVDTIPVELKSSYMVWSWFIYVLSANLLLVIPLLWVAAWWSLRPIEALAKEVRELEEHNRELLNPATTRELTSLVRNLNRLLKSERERYDKYRTTLTDLTHSLKTPLXXLQXXLRSLRSEKMSVSDAEPVMLEQISRISQQIGYYLHRASMRGGTLLSRELHPVAPLLDNLTSALNKVYQRKGVNISLDISPEISFVGEQNDFVEVMGNVLDNACKYCLEFVEISARQTDEHLYIVVEDDGPGIPLSKREVIFDRGQRVDTLRPGQGVGLAVAREITEQYEGKIVAGESMLGGARMEVIFGRQHSAPKDE

The assay covers variants of B1. The assay is described as follows: enrichment ratio after two sorts for PhoP signalling (ratio (wild type AVST 3.29)); higher = more functional. Particulars: with PhoP (E. coli).
Take FFDV: the enrichment ratio is no more than 0.25.
Next, DSVS: no more than 0.25; ATWF: no more than 0.25; QRVY: no more than 0.25.
For the variant VHCS, the enrichment ratio was no more than 0.25.
Turning to MYKL, the enrichment ratio was no more than 0.25.
Take CYAF: the enrichment ratio is no more than 0.25.
In the case of YFPK, the enrichment ratio was no more than 0.25.
Next, TTGD: 0.456; GCSY: no more than 0.25.
RCHE: the enrichment ratio is no more than 0.25.
For the variant QGAQ, the enrichment ratio worked out at 3.05.
Next, HGPD: no more than 0.25; KPSA: no more than 0.25; MHAC: no more than 0.25.
For the variant RTFR, the enrichment ratio is no more than 0.25.
With QNAQ, the enrichment ratio is no more than 0.25.
For the variant ELNW, the enrichment ratio is no more than 0.25.
For the variant WCGF, the enrichment ratio is no more than 0.25.
In the case of VPSW, the enrichment ratio is no more than 0.25.
With SAKC, the enrichment ratio is no more than 0.25.
The result for LAIS reads no more than 0.25; that for QRII, no more than 0.25; that for PYPD, no more than 0.25.
Next, LVNS: no more than 0.25; PPIG: no more than 0.25.
Take SDFM: the enrichment ratio was no more than 0.25.
Next, VYSV: no more than 0.25.
As for WHWH, the enrichment ratio was no more than 0.25.
In the case of MSLN, the enrichment ratio is 4.44.
Take AQQQ: the enrichment ratio was no more than 0.25.
Regarding GVIM, the enrichment ratio turned out to be 19.3.
Consider DSWW, for which the enrichment ratio was no more than 0.25.
As for IMSN, the enrichment ratio was no more than 0.25.
As to SFTG, the enrichment ratio is 5.29.
In the case of FIHS, the enrichment ratio was no more than 0.25.
The result for KDVL reads no more than 0.25.
For NINR, the enrichment ratio is no more than 0.25.
As for DSYM, the enrichment ratio was no more than 0.25.
ACAY: the enrichment ratio was 3.43.
Next, YACV: no more than 0.25; DAGL: no more than 0.25.
As for CRYS, the enrichment ratio is no more than 0.25.
As for FSKH, the enrichment ratio was no more than 0.25.
Consider VKMQ, for which the enrichment ratio was no more than 0.25.
On to TFFM, for which the enrichment ratio is no more than 0.25.
For GTQW, the enrichment ratio was no more than 0.25.
As to DYKG, the enrichment ratio is no more than 0.25.
Next, EYCM: no more than 0.25.
With QDFG, the enrichment ratio is no more than 0.25.
KYCP: the enrichment ratio was no more than 0.25.
Consider EGKI, for which the enrichment ratio was no more than 0.25.
With SFWM, the enrichment ratio is no more than 0.25.
On to MCLQ, for which the enrichment ratio was 3.13.
As for YHWP, the enrichment ratio was no more than 0.25.
With DIMN, the enrichment ratio is no more than 0.25.
Regarding WERC, the enrichment ratio was no more than 0.25.
Consider TAMH, for which the enrichment ratio was determined as 8.01.
Next, EASW: no more than 0.25; MIGP: no more than 0.25; FFHW: no more than 0.25.
On to EVDV, for which the enrichment ratio is no more than 0.25.
With WYGV, the enrichment ratio was no more than 0.25.
Consider WDHA, for which the enrichment ratio was no more than 0.25.
As to ATTI, the enrichment ratio was found to be 13.7.
Next, RPFQ: no more than 0.25; EIQD: no more than 0.25.
Next, LQFC: no more than 0.25; PWNS: no more than 0.25; ICNH: no more than 0.25.
Next, RDLC: no more than 0.25; LCDK: no more than 0.25.
Take FRCH: the enrichment ratio was no more than 0.25.
Next, MTIA: no more than 0.25; HSMK: no more than 0.25; LHKV: no more than 0.25.
Turning to VFRD, the enrichment ratio was no more than 0.25.
The result for DVHQ reads no more than 0.25; that for DLVF, no more than 0.25.
Consider HVMI, for which the enrichment ratio was no more than 0.25.
Next, YFIC: no more than 0.25; ERAQ: no more than 0.25.
In the case of WHIL, the enrichment ratio is no more than 0.25.
Next, LPEI: no more than 0.25; REYI: no more than 0.25; VPNE: no more than 0.25.
For the variant VPFM, the enrichment ratio is no more than 0.25.
Regarding MTEV, the enrichment ratio is no more than 0.25.
Consider MCDL, for which the enrichment ratio is no more than 0.25.
The result for FKSQ reads no more than 0.25; that for GFDL, no more than 0.25.
Consider ITTD, for which the enrichment ratio is no more than 0.25.
Take PQDM: the enrichment ratio was no more than 0.25.
Turning to NPTN, the enrichment ratio was no more than 0.25.
Next, MVHS: no more than 0.25; DMNN: no more than 0.25; FYMT: no more than 0.25.
The result for QFWE reads no more than 0.25; that for PFKE, no more than 0.25; that for MRND, no more than 0.25.
On to YMIH, for which the enrichment ratio is no more than 0.25.
Next, EAPP: no more than 0.25.
Regarding DQDR, the enrichment ratio was no more than 0.25.
On to DIEK, for which the enrichment ratio is no more than 0.25.
The result for IFTG reads no more than 0.25; that for EGQP, no more than 0.25.
Consider HDSM, for which the enrichment ratio was no more than 0.25.
Regarding DAWF, the enrichment ratio was no more than 0.25.
For SIQL, the enrichment ratio came out at 13.1.
For the variant KFGF, the enrichment ratio was no more than 0.25.
PDFQ: the enrichment ratio was no more than 0.25.
For FAKC, the enrichment ratio was no more than 0.25.
In the case of YGVY, the enrichment ratio was no more than 0.25.
Consider YQMQ, for which the enrichment ratio was no more than 0.25.
As to GCPH, the enrichment ratio was no more than 0.25.
The result for WMSS reads no more than 0.25; that for GMAM, 24.3.
On to KHRC, for which the enrichment ratio was no more than 0.25.
On to MCVQ, for which the enrichment ratio is no more than 0.25.
In the case of DACQ, the enrichment ratio was no more than 0.25.
Regarding RWDK, the enrichment ratio is no more than 0.25.
Next, QAWD: no more than 0.25; PIYL: no more than 0.25; FMLE: no more than 0.25.
On to VSEH, for which the enrichment ratio was no more than 0.25.
For ILMT, the enrichment ratio was no more than 0.25.
In the case of YWVN, the enrichment ratio is no more than 0.25.
Turning to PMKF, the enrichment ratio was no more than 0.25.
As for AMWS, the enrichment ratio is no more than 0.25.
As for LPST, the enrichment ratio is no more than 0.25.
As to AGAI, the enrichment ratio was determined as 8.77.
Regarding ATGK, the enrichment ratio was no more than 0.25.
Next, LWQV: no more than 0.25.
As to YSLE, the enrichment ratio came out at 6.07.
PHIA: the enrichment ratio was no more than 0.25.
Consider RYND, for which the enrichment ratio was no more than 0.25.
Turning to VNAL, the enrichment ratio was 3.91.
THKD: the enrichment ratio was no more than 0.25.
For PYDH, the enrichment ratio is no more than 0.25.
For GEIT, the enrichment ratio is no more than 0.25.
The result for RMSA reads no more than 0.25; that for GFVS, no more than 0.25.
The result for YRAV reads no more than 0.25.
Take VMRG: the enrichment ratio is no more than 0.25.
MQFH: the enrichment ratio was 9.86.
For RGKH, the enrichment ratio was no more than 0.25.
IKMT: the enrichment ratio is no more than 0.25.
Next, PGHT: no more than 0.25; QNLV: no more than 0.25; PWHC: no more than 0.25.
Next, RPDW: no more than 0.25; DFCF: no more than 0.25; AMDD: no more than 0.25.
